Source: patent publication US20240141070A1 (JIANGSU ALPHAMAB BIOPHARMACEUTICALS, published 2024)

B1: KN052-1 (bispecific antibody, human IgG1, kappa)
light: EIVLTQSPATLSLSPGERATLSCRASQSVGSYLAWYQQKPGQAPRLLIYDASNRATGIPARFSGSGSGTDFTLTISSLEPEDFAVYYCQQRSNWPPGYTFGQGTKLEIKRTVAAPSVFIFPPSDEQLKSGTASVVCLLNNFYPREAKVQWKVDNALQSGNSQESVTEQDSKDSTYSLSSTLTLSKADYEKHKVYACEVTHQGLSSPVTKSFNRGEC
heavy: QVQLVESGGGLVQPGGSLRLSCAASGKMSSRRCMAWFRQAPGKERERVAKLLTTSGSTYLADSVKGRFTISRDNSKNTVYLQMNSLRAEDTAVYYCAADSFEDPTCTLVTSSGAFQYWGQGTLVTVSSGAPQVQLQQSGPGLVKPSQTLSLTCAISGDSVSSNSVSWDWIRQSPSRGLEWLGRTYYRSKWYNEYAVSVESRITINPDTSKNQFSLQLNSVTPEDTAIYFCVRNDYFFDLWGRGTLVTVSS[gap - human IgG1 constant region]
notes: Expressed in HEK293, purified on protein A
B2: KN052-2 (bispecific antibody, human IgG1, kappa)
light: EIVLTQSPATLSLSPGERATLSCRASQSVGSYLAWYQQKPGQAPRLLIYDASNRATGIPARFSGSGSGTDFTLTISSLEPEDFAVYYCQQRSNWPPGYTFGQGTKLEIKRTVAAPSVFIFPPSDEQLKSGTASVVCLLNNFYPREAKVQWKVDNALQSGNSQESVTEQDSKDSTYSLSSTLTLSKADYEKHKVYACEVTHQGLSSPVTKSFNRGEC
heavy: QVQLVESGGGLVQPGGSLRLSCAASGKMSSRRCMAWFRQAPGKERERVAKLLTTSGSTYLADSVKGRFTISRDNSKNTVYLQMNSLRAEDTAVYYCAADSFEDPTCTLVTSSGAFQYWGQGTLVTVSSASTKGPSVFPLAGAPQVQLQQSGPGLVKPSQTLSLTCAISGDSVSSNSVSWDWIRQSPSRGLEWLGRTYYRSKWYNEYAVSVESRITINPDTSKNQFSLQLNSVTPEDTAIYFCVRNDYFFDLWGRGTLVTVSS[gap - human IgG1 constant region]
B3: KN052-3 (bispecific antibody, human IgG1, kappa)
light: EIVLTQSPATLSLSPGERATLSCRASQSVGSYLAWYQQKPGQAPRLLIYDASNRATGIPARFSGSGSGTDFTLTISSLEPEDFAVYYCQQRSNWPPGYTFGQGTKLEIKRTVAAPSVFIFPPSDEQLKSGTASVVCLLNNFYPREAKVQWKVDNALQSGNSQESVTEQDSKDSTYSLSSTLTLSKADYEKHKVYACEVTHQGLSSPVTKSFNRGEC
heavy: QVQLQQSGPGLVKPSQTLSLTCAISGDSVSSNSVSWDWIRQSPSRGLEWLGRTYYRSKWYNEYAVSVESRITINPDTSKNQFSLQLNSVTPEDTAIYFCVRNDYFFDLWGRGTLVTVSS[gap - human IgG1 constant region]APQVQLVESGGGLVQPGGSLRLSCAASGKMSSRRCMAWFRQAPGKERERVAKLLTTSGSTYLADSVKGRFTISRDNSKNTVYLQMNSLRAEDTAVYYCAADSFEDPTCTLVTSSGAFQYWGQGTLVTVSS
notes: also called KNO52-3
B4: KN052-4 (bispecific antibody, human IgG1, kappa)
light: EIVLTQSPATLSLSPGERATLSCRASQSVGSYLAWYQQKPGQAPRLLIYDASNRATGIPARFSGSGSGTDFTLTISSLEPEDFAVYYCQQRSNWPPGYTFGQGTKLEIKRTVAAPSVFIFPPSDEQLKSGTASVVCLLNNFYPREAKVQWKVDNALQSGNSQESVTEQDSKDSTYSLSSTLTLSKADYEKHKVYACEVTHQGLSSPVTKSFNRGEC
heavy: QVQLQQSGPGLVKPSQTLSLTCAISGDSVSSNSVSWDWIRQSPSRGLEWLGRTYYRSKWYNEYAVSVESRITINPDTSKNQFSLQLNSVTPEDTAIYFCVRNDYFFDLWGRGTLVTVSS[gap - human IgG1 constant region]STKGPSVFPLAGAPQVQLVESGGGLVQPGGSLRLSCAASGKMSSRRCMAWFRQAPGKERERVAKLLTTSGSTYLADSVKGRFTISRDNSKNTVYLQMNSLRAEDTAVYYCAADSFEDPTCTLVTSSGAFQYWGQGTLVTVSS

Each binder was assayed against T1, human PD-L1 protein on cells (A375-hPD-L1 cells; PD-L1 aAPC/CHO-K1 cells; PD-L1-expressing CHO cells) (human, UniProt Q9NZQ7) (assay: flow cytometry (MFI) on A375-hPD-L1 cells).
T1 construct: whole, on cells

Chain of UniProt Q9NZQ7 (Q9NZQ7 19-290): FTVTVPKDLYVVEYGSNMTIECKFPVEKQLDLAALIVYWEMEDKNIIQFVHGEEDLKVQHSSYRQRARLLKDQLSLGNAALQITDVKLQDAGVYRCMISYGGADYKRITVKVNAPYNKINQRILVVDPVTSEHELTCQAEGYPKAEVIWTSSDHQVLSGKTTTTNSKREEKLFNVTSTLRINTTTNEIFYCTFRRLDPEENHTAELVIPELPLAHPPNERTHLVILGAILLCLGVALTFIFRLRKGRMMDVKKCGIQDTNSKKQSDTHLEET

Binding result, binds:
B1
B2
B3
B4
